Experimental data as given in PubChem BioAssay AID540267 (National Center for Advancing Translational Sciences (NCATS), 2011).
About 530 (0.16%) of roughly 340,000 compounds were called active. This list was built around the results that the source calls inconclusive (neither active nor inactive); the mix of calls is not that of the screen. Cut-off read from the data, not from the text of the source: active = activity change below about -80%; inconclusive = between about -30% and that limit; inactive = weaker than that.

assay: Small Molecules that selectively kill Giardia lamblia: qHTS; conditions: Giardia lamblia trophozoite viability; at 7.66 µM; stronger effect = lower value;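 note: parasites exposed to compound for two days anaerobically before the ATP read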
Method in brief: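 Killing of trophozoites was scored by loss of ATP luminescence after a 48 hrs anaerobic exposure to compounds at 37 deg C, using 100 cells per well.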
% is set by controls: 0 for no effect and ±100 for the full control effect.

SMILES | activity change
Cc1cccc(-n2c(=S)[nH]c3c(oc4ccccc43)c2=O)c1 | inactive: -3.34%
O=C(Nc1ccc(Cc2ccc(NC(=O)C3CC3)cc2)cc1)C1CC1 | inconclusive: -41.9% [inhibitor]
Cc1ccc(NCc2nnc3n2CCCCC3)c(C)c1 | inconclusive: -32.8% [inhibitor]
CC(C)Oc1ccccc1C1Nc2ccccc2C(=O)N1c1ccc2c(c1)OCCO2 (stereo unspecified) | inconclusive: -46% [inhibitor]
c1ccc(-n2ncc3c(N4CCCCC4)ncnc32)cc1 | inconclusive: -73.4% [inhibitor]
O=C(/C=C/c1ccco1)N(Cc1ccc(Cl)cc1)C1CCS(=O)(=O)C1 (stereo unspecified) | inactive: -6.68%
CC(NC(=O)COc1cccnc1[N+](=O)[O-])c1ccc(Cl)cc1 (stereo unspecified) | inconclusive: -68.8% [inhibitor]
Cc1ccc(CCNC(=O)C2CCC(=O)N2Cc2ccc(F)cc2)cc1 (stereo unspecified) | inconclusive: -38.2% [inhibitor]
Cc1ccc2nc(-c3cc(-c4ccccc4)no3)cn2c1 | inconclusive: -36.3% [inhibitor]
COc1ccccc1/C=C/C(C)=O | inactive: 13.2%
CN(C)c1ccc(C(=O)NCC2CCCO2)cc1 (stereo unspecified) | inconclusive: -31.3% [inhibitor]
O=C1CN(C(=O)COc2ccc([N+](=O)[O-])cc2Cl)c2ccccc2N1 | inconclusive: -31.7% [inhibitor]
CC(=O)Nc1c(O)nc(SCC(=O)Nc2c(C)cccc2C)[nH]c1=O | inactive: 10.5%
O=C(c1ccc([N+](=O)[O-])s1)N1CCCc2ccccc21 | inconclusive: -67.6% [inhibitor]
COc1cc(C2C(C(=O)c3ccc(C)o3)=C(O)C(=O)N2c2cc(C)on2)ccc1OCc1ccccc1 (stereo unspecified) | inconclusive: -47.4% [inhibitor]
COc1ccc(S(=O)(=O)Nc2cc(S(=O)(=O)c3ccccc3)c(O)cc2C)cc1 | inconclusive: -32% [inhibitor]
CCN(C(=O)C1CCN(S(=O)(=O)c2ccc3c(c2)oc(=O)n3C)CC1)c1cccc(C)c1 | inconclusive: -55.5% [inhibitor]
CC(C)NC(=O)N(C)C[C@H]1Oc2ccc(NC(=O)C3CCCCC3)cc2C(=O)N([C@H](C)CO)C[C@@H]1C | inconclusive: -32.4% [inhibitor]
O=C(CSc1nc(NS(=O)(=O)c2ccccc2)cc(=O)[nH]1)Nc1ccc(Cl)cc1 | inactive: -17.7%
COc1cc(C#Cc2c(-c3cncn3C)n(C)c3ccc(-c4cc(OC)c(OC)c(OC)c4)cc23)cc(OC)c1 | inconclusive: -43% [inhibitor]
Cc1ccc(S(=O)(=O)N2[C@@H](c3ccc(C(C)(C)C)cc3)C(C(=O)O)=CC[C@H]2c2ccc3c(c2)OCO3)cc1 | inconclusive: -33.5% [inhibitor]
